{"source": "PubChem BioAssay (NCI)", "test_system": "NCI-H322M lung", "experiment": "NCI-60 cell line screen, 48 h", "note": "“And” between values parts separate entries of the source, which are not always exact repeats. Equal entries are not always repeated.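 Growth conditions: 96-well plates. Treatment: test compound, 48 hours, 5 concentrations. Analysis: linear interpolation between bracketing concentrations; unreached endpoints set to highest concentration. GI50 is the concentration that inhibits growth by half. TGI denotes the concentration required for complete inhibition of growth.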"}
{"smiles": "Cc1ccc(N=C/C=C(\\Nc2ccc(C)cc2)c2ccc3ccccc3c2)cc1", "values": [{"measurement": "TGI", "result": 7.55, "unit": "µM"}]}
{"smiles": "Cc1ccc(SSCC(O)C(O)CSSc2ccc(C)cc2)cc1", "note": "(stereo not drawn)", "values": [{"measurement": "GI50", "result": "6.79 µM and 17.1 µM"}, {"measurement": "TGI", "result": "24.3 µM and 47.3 µM"}]}
{"smiles": "COC(=O)/C(C#N)=C1\\CCC(OC)N1C", "note": "(stereo not drawn)", "values": [{"measurement": "TGI", "result": "> 100", "unit": "µM"}]}
{"smiles": "Cc1c(Nc2nccc3cc(CN4CC[C@@H](O)C4)cnc23)cccc1-c1cccc(-c2nc3cc(CN4CC[C@@H](C(=O)O)C4)cc(C#N)c3o2)c1C", "values": [{"measurement": "GI50", "result": "> 100", "unit": "µM"}, {"measurement": "TGI", "result": "> 100", "unit": "µM"}]}
{"smiles": "S=C1C(=Nc2ccccc2)N(c2ccccc2)/C(=N\\c2cccc[n+]2Cc2ccccc2)N1c1ccccc1", "values": [{"measurement": "TGI", "result": 55.8, "unit": "µM"}]}
{"smiles": "O=C1C=C(N2CCN(c3ncccn3)CC2)C(=O)c2c(O)ccc(O)c21", "values": [{"measurement": "TGI", "result": "> 100", "unit": "µM"}]}
{"smiles": "Clc1ccc(-c2nn3c(COc4cccc(OCc5nnc6sc(-c7ccc(Cl)cc7)nn56)c4)nnc3s2)cc1", "values": [{"measurement": "TGI", "result": "> 100", "unit": "µM"}]}
{"smiles": "c1cc2cc3c4c5c(cc6ccc7cc8cc9c%10c8c8c7c6c5c8c5c%10c(c1C9N1CCOCCOCCOCCOCCOCC1)c2c45)C3", "note": "(stereo not drawn)", "values": [{"measurement": "TGI", "result": "> 100", "unit": "µM"}]}
{"smiles": "FC(F)c1ncc(-c2ccc(C(F)(F)F)cc2)c(NC2CCCCCC2)n1", "values": [{"measurement": "GI50", "result": "> 10", "unit": "µM"}, {"measurement": "TGI", "result": "> 10", "unit": "µM"}]}
{"smiles": "C=C(C)[C@@H]1CCc2c(O)c(O)c(=O)cc(C)c2C1", "values": [{"measurement": "TGI", "result": "> 100", "unit": "µM"}]}
{"smiles": "COc1cccc2c1OC1c3ccccc3OCC1(O)C2", "note": "(stereo not drawn)", "values": [{"measurement": "TGI", "result": "> 100", "unit": "µM"}]}
{"smiles": "O=C1c2ccncc2C(=O)c2c(O)ccc(O)c21", "values": [{"measurement": "TGI", "result": "> 100", "unit": "µM"}]}
{"smiles": "COc1ccc(Nc2ncnc3ccc(-c4cncc(NS(C)(=O)=O)c4)cc23)cc1Cl", "values": [{"measurement": "GI50", "result": 3.17, "unit": "µM"}, {"measurement": "TGI", "result": 15.6, "unit": "µM"}]}
{"smiles": "c1ccc2c[n+](CCCC[n+]3ccc4ccccc4c3)ccc2c1", "values": [{"measurement": "TGI", "result": "> 100", "unit": "µM"}]}
{"smiles": "NC(N)=NC(N)=Nc1ccc(C(=O)O)cc1", "values": [{"measurement": "TGI", "result": "> 100", "unit": "µM"}]}
{"smiles": "COc1ccc(-c2cc3ccccc3[nH]c2=O)cc1OC", "values": [{"measurement": "TGI", "result": "> 100", "unit": "µM"}]}
{"smiles": "CCOC(=O)c1cc2c3c(c(C(C)=O)c(OC)c2[nH]1)N(C(=O)CC)CC3", "values": [{"measurement": "TGI", "result": 30.1, "unit": "µM"}]}
{"smiles": "O=C1CS/C(=N/S(=O)(=O)c2ccc(N3N=C4c5ccccc5CC4C3c3cccs3)cc2)N1C(=O)c1ccccc1", "note": "(stereo not drawn)", "values": [{"measurement": "GI50", "result": 16.6, "unit": "µM"}, {"measurement": "TGI", "result": 49.9, "unit": "µM"}]}
{"smiles": "COc1ccc(CSC2=C(C#N)C(=O)NC3(CCCCC3)S2)cc1", "values": [{"measurement": "TGI", "result": "> 100", "unit": "µM"}]}
{"smiles": "Nc1ccc2c(=O)cc(-c3ccc(Br)s3)[nH]c2n1", "values": [{"measurement": "TGI", "result": "> 100", "unit": "µM"}]}
{"smiles": "COC(=O)C(=O)C(C(=O)C(=O)Nc1ccccc1[N+](=O)[O-])c1nc2ccc([N+](=O)[O-])cc2[nH]c1=O", "note": "(stereo not drawn)", "values": [{"measurement": "TGI", "result": "> 100", "unit": "µM"}]}
{"smiles": "CN(C)c1ccc(/C=c2/c3ccccc3n3c2cc(/C=C/c2ccccc2)[n+]3C)cc1", "values": [{"measurement": "TGI", "result": 1.33, "unit": "µM"}]}
{"smiles": "Cc1nn(C)c2ncnc(N/N=C/c3cccc(O)c3O)c12", "values": [{"measurement": "GI50", "result": 0.426, "unit": "µM"}, {"measurement": "TGI", "result": "> 53", "unit": "µM"}]}
{"smiles": "CC(C)[P+](c1ccccc1)(c1ccccc1)c1ccccc1", "values": [{"measurement": "GI50", "result": 32.5, "unit": "µM"}, {"measurement": "TGI", "result": "> 100", "unit": "µM"}]}
{"smiles": "COC(=O)CC1(O)C=CC(=O)C=C1", "values": [{"measurement": "TGI", "result": 30.3, "unit": "µM"}]}
{"smiles": "COC(=O)c1onc(C2OC(C)(C)OC2C(O)COC(c2ccccc2)(c2ccccc2)c2ccccc2)c1C(=O)OC", "note": "(stereo not drawn)", "values": [{"measurement": "TGI", "result": "> 100", "unit": "µM"}]}
{"smiles": "CCCCCCC(=O)C/C(CCC(=O)N(Cc1ccccc1)Cc1ccccc1)=N\\NC(N)=O", "values": [{"measurement": "TGI", "result": "> 100", "unit": "µM"}]}
{"smiles": "Fc1ccc2c(c1)C1=C(CCC2)C(c2ccc(Cl)cc2)NC(=S)N1", "note": "(stereo not drawn)", "values": [{"measurement": "GI50", "result": "> 100", "unit": "µM"}, {"measurement": "TGI", "result": "> 100", "unit": "µM"}]}
{"smiles": "CC1=NN(c2ccccc2)C(=O)C12[C@H](c1ccccc1)C2(C#N)C#N", "note": "(stereo partly drawn)", "values": [{"measurement": "TGI", "result": 29.4, "unit": "µM"}]}
{"smiles": "Cc1nc(C)c(N2CCN(CN)CC2)c(=O)[nH]1", "values": [{"measurement": "TGI", "result": "> 100", "unit": "µM"}]}
{"smiles": "CC(C)=Cc1cc(CCC/C(C)=C/Cc2c(O)cc(C)c(C(=O)O)c2O)co1", "values": [{"measurement": "TGI", "result": "> 100", "unit": "µM"}]}
{"smiles": "Cc1cc(C)c2c(c1)C/C(=C\\c1cccc(C)c1C(=O)O)C2=O", "values": [{"measurement": "TGI", "result": "> 100", "unit": "µM"}]}
{"smiles": "O=C1CCCCC/C1=C\\c1cccc(F)c1", "values": [{"measurement": "TGI", "result": "> 100", "unit": "µM"}]}
{"smiles": "O=C1Nc2cccc(Cl)c2/C1=C\\c1c(-c2ccccc2)nc2n1CCS2", "values": [{"measurement": "TGI", "result": 57.8, "unit": "µM"}]}
{"smiles": "c1ccc2c(Nc3ncco3)cccc2c1", "values": [{"measurement": "TGI", "result": "> 10", "unit": "µM"}]}
{"smiles": "O=C1CC(C2(O)C(=O)Nc3ccc([N+](=O)[O-])cc32)c2ccccc21", "note": "(stereo not drawn)", "values": [{"measurement": "TGI", "result": "> 100", "unit": "µM"}]}
{"smiles": "CC(/C=C/C(=O)c1sc(C(N)=S)nc1C)=C\\c1ccccc1", "values": [{"measurement": "TGI", "result": "> 100", "unit": "µM"}]}
{"smiles": "CC(C)[C@H](C)/C=C/[C@@H](C)C1CC[C@H]2[C@@]34C=C[C@]5(C[C@@H](O)CC[C@]5(C)[C@H]3CC[C@]12C)OO4", "note": "(stereo partly drawn)", "values": [{"measurement": "TGI", "result": "> 100", "unit": "µM"}]}
{"smiles": "C=CC(C)(C)/C=C/c1ccc(O)cc1", "values": [{"measurement": "TGI", "result": "> 100", "unit": "µM"}]}
{"smiles": "Cn1c2ccccc2n2c3ncccc3c(=O)cc12", "values": [{"measurement": "TGI", "result": "> 100", "unit": "µM"}]}
{"smiles": "CCC1=C(C[C@H]2NCCc3cc(OC)c(OC)cc32)C[C@H]2c3cc(OC)c(OC)cc3CCN2C1", "values": [{"measurement": "TGI", "result": 0.481, "unit": "µM"}]}
{"smiles": "COc1ccc2nc(C)cc(Sc3nc4ccccc4s3)c2c1", "values": [{"measurement": "GI50", "result": 2.19, "unit": "µM"}, {"measurement": "TGI", "result": 11, "unit": "µM"}]}
{"smiles": "O=C1NC(=O)C(c2cccc(Cl)c2)=C1Nc1ccc(Cl)c(C(=O)O)c1", "values": [{"measurement": "GI50", "result": "> 25", "unit": "µM"}, {"measurement": "TGI", "result": "> 25", "unit": "µM"}]}
{"smiles": "COc1cc(S(=O)(=O)Nc2nc(-c3ccc(N4C(=O)C(C)SC4c4ccccc4O)cc3)cs2)ccc1Cl", "note": "(stereo not drawn)", "values": [{"measurement": "GI50", "result": 73.4, "unit": "µM"}, {"measurement": "TGI", "result": "> 100", "unit": "µM"}]}
{"smiles": "CCCC1=C(OC)C(=O)c2c(C)cc(Cl)nc2C1=O", "values": [{"measurement": "TGI", "result": 28.4, "unit": "µM"}]}
{"smiles": "O=C1OC(=O)C23CSCC12C1C=CC3O1", "note": "(stereo not drawn)", "values": [{"measurement": "TGI", "result": "> 100", "unit": "µM"}]}
{"smiles": "O=c1[nH]n(CCc2ccccc2CCl)c2ccc([N+](=O)[O-])cc12", "values": [{"measurement": "TGI", "result": "> 100", "unit": "µM"}]}
{"smiles": "Brc1cc(C2OCCCO2)ccc1OCc1ccccc1", "values": [{"measurement": "TGI", "result": "> 100", "unit": "µM"}]}
{"smiles": "COc1ccc(OC)c2c(C)ccnc12", "values": [{"measurement": "TGI", "result": "> 100", "unit": "µM"}]}
{"smiles": "CCOC(=O)c1c(N2CCCC2)[nH]c(=O)c(C(c2ccc(N(C)C)cc2)c2c(O)c(C(=O)OCC)c(N3CCCC3)[nH]c2=O)c1O", "values": [{"measurement": "TGI", "result": "> 100", "unit": "µM"}]}
{"smiles": "COC(=O)C1C(=O)CC(C)(O)C(C(=O)OC)C1c1ccc(N(C)C)cc1", "note": "(stereo not drawn)", "values": [{"measurement": "TGI", "result": "> 100", "unit": "µM"}]}
{"smiles": "COC(=O)CCC(=O)NC1=C(Nc2ccccc2)C(=O)c2ccccc2C1=O", "values": [{"measurement": "TGI", "result": 31.2, "unit": "µM"}]}
{"smiles": "Cc1nc2ccc(Br)cc2c(=O)n1-c1ccc(N)cc1", "values": [{"measurement": "TGI", "result": "> 100", "unit": "µM"}]}
{"smiles": "O=c1[nH]nc(-c2ccccc2)c2[nH]c3c(c12)Cc1ccccc1-3", "values": [{"measurement": "TGI", "result": "> 100", "unit": "µM"}]}
{"smiles": "COc1cc2c(cc1OC)C(C(CBr)CBr)N(C1CCCC1)CC2", "note": "(stereo not drawn)", "values": [{"measurement": "TGI", "result": "> 100", "unit": "µM"}]}
{"smiles": "COc1cccc(NC(=O)CC(=O)n2nc(-c3ccccc3)c(N=Nc3ccc(Cl)cc3)c2-c2ccccc2)c1", "values": [{"measurement": "TGI", "result": 98, "unit": "µM"}]}
{"smiles": "Cc1ccc(N2C(=O)/C(=C/c3ccc(N(CCC#N)CCC#N)cc3)N=C2COc2ccc(Cl)cc2Cl)cc1", "values": [{"measurement": "TGI", "result": "> 100", "unit": "µM"}]}
